# Where a chain is given by its changes, count along the chain named. Some of the results follow.
# T1: RBFOX1 RRM RbFoxmut (Fox-RRM*) (Homo sapiens, UniProt Q9NWB1 109-208, R118D;E147R;N151S;E152T)
# T1 sequence: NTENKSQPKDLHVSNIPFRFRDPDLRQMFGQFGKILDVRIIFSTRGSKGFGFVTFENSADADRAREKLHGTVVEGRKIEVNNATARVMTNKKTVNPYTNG
# B1: UGGUUUU (DNA:RNA)
# RNA: GGGAGACCGGAAUUCAGAUUGUCCUGGUUUUUUAAAUCCCGUCGUAGCCACCA
# DNA 1: CAATCTGAATTCCGGTCTCCC
# DNA 2: TGGTGGCTACGACGGGATT
# B2: UCUAACU (DNA:RNA)
# RNA: B1 RNA with G26C, G27U, U28A, U29A, U30C
# DNA 1: CAATCTGAATTCCGGTCTCCC
# DNA 2: TGGTGGCTACGACGGGATT
# B3: CCGCCCU (DNA:RNA)
# RNA: B1 RNA with U25C, G26C, U28C, U29C, U30C
# DNA 1: CAATCTGAATTCCGGTCTCCC
# DNA 2: TGGTGGCTACGACGGGATT
# B4: UCACGCU (DNA:RNA)
# RNA: B1 RNA with G26C, G27A, U28C, U29G, U30C
# DNA 1: CAATCTGAATTCCGGTCTCCC
# DNA 2: TGGTGGCTACGACGGGATT
# B5: GAGGACU (DNA:RNA)
# RNA: B1 RNA with U25G, G26A, U28G, U29A, U30C
# DNA 1: CAATCTGAATTCCGGTCTCCC
# DNA 2: TGGTGGCTACGACGGGATT
# B6: GAUGGGC (DNA:RNA)
# RNA: GGGAGACCGGAAUUCAGAUUGUCCGAUGGGCUUAAAUCCCGUCGUAGCCACCA
# DNA 1: CAATCTGAATTCCGGTCTCCC
# DNA 2: TGGTGGCTACGACGGGATT
# B7: UGUAGAG (DNA:RNA)
# RNA: B6 RNA with G25U, A26G, G28A, G30A, C31G
# DNA 1: CAATCTGAATTCCGGTCTCCC
# DNA 2: TGGTGGCTACGACGGGATT
# B8: AAAGGGA (DNA:RNA)
# RNA: B6 RNA with G25A, U27A, C31A
# DNA 1: CAATCTGAATTCCGGTCTCCC
# DNA 2: TGGTGGCTACGACGGGATT
# B9: AUUGUUA (DNA:RNA)
# RNA: B6 RNA with G25A, A26U, G29U, G30U, C31A
# DNA 1: CAATCTGAATTCCGGTCTCCC
# DNA 2: TGGTGGCTACGACGGGATT
# B10: UCUAUAA (DNA:RNA)
# RNA: B1 RNA with G26C, G27U, U28A, U30A, U31A
# DNA 1: CAATCTGAATTCCGGTCTCCC
# DNA 2: TGGTGGCTACGACGGGATT
# B11: GAGGGGC (DNA:RNA)
# RNA: B6 RNA with U27G
# DNA 1: CAATCTGAATTCCGGTCTCCC
# DNA 2: TGGTGGCTACGACGGGATT
# B12: GACCCUG (DNA:RNA)
# RNA: B6 RNA with U27C, G28C, G29C, G30U, C31G
# DNA 1: CAATCTGAATTCCGGTCTCCC
# DNA 2: TGGTGGCTACGACGGGATT
# B13: CAAGCUU (DNA:RNA)
# RNA: B6 RNA with G25C, U27A, G29C, G30U, C31U
# DNA 1: CAATCTGAATTCCGGTCTCCC
# DNA 2: TGGTGGCTACGACGGGATT
# B14: GGGUCCC (DNA:RNA)
# RNA: B1 RNA with U25G, U29C, U30C, U31C
# DNA 1: CAATCTGAATTCCGGTCTCCC
# DNA 2: TGGTGGCTACGACGGGATT
# B15: CGUUAAC (DNA:RNA)
# RNA: B6 RNA with G25C, A26G, G28U, G29A, G30A
# DNA 1: CAATCTGAATTCCGGTCTCCC
# DNA 2: TGGTGGCTACGACGGGATT
# B16: AAGACCA (DNA:RNA)
# RNA: B6 RNA with G25A, U27G, G28A, G29C, G30C, C31A
# DNA 1: CAATCTGAATTCCGGTCTCCC
# DNA 2: TGGTGGCTACGACGGGATT
# B17: CUCGCUA (DNA:RNA)
# RNA: B6 RNA with G25C, A26U, U27C, G29C, G30U, C31A
# DNA 1: CAATCTGAATTCCGGTCTCCC
# DNA 2: TGGTGGCTACGACGGGATT
# B18: CUCUUGU (DNA:RNA)
# RNA: B1 RNA with U25C, G26U, G27C, U30G
# DNA 1: CAATCTGAATTCCGGTCTCCC
# DNA 2: TGGTGGCTACGACGGGATT
# B19: GAAAAGA (DNA:RNA)
# RNA: B6 RNA with U27A, G28A, G29A, C31A
# DNA 1: CAATCTGAATTCCGGTCTCCC
# DNA 2: TGGTGGCTACGACGGGATT
# B20: GGCCCGA (DNA:RNA)
# RNA: B6 RNA with A26G, U27C, G28C, G29C, C31A
# DNA 1: CAATCTGAATTCCGGTCTCCC
# DNA 2: TGGTGGCTACGACGGGATT
# Biological target: T1, RBFOX1 RRM RbFoxmut (Fox-RRM*)
# Test: EMSA; HiTS-Eq, 1 nM pool, 10 min; buffer printed only for the single-RNA assays: 10 mM Tris pH 7.5, 150 mM NaCl, 3.4 mM EDTA, 0.001% NP-40, 30 C
# Conditions: tags: His6 N-terminal (pET28a); label: 5' 32P
# Outline: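 A pool of RNA with 7 randomized nucleotides, 5′-radiolabelled and with DNA-annealed flanks, was equilibrated at 1 nM for 10 min in 50 µL with purified RbFox RRM, wild type or mutant, across increasing protein concentrations. Free RNA was separated by 8% native PAGE, excised, reverse-transcribed, barcoded by PCR and sequenced. Relative association constants were obtained from read-count changes of each RNA species versus the control reaction and normalised to the cognate motif.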
row,Binder,binding signal
1,B1,0.0956 KA relative to UGCAUGU
2,B2,0.0968 KA relative to UGCAUGU
3,B3,0.049 KA relative to UGCAUGU
4,B4,0.075 KA relative to UGCAUGU
5,B5,0.0416 KA relative to UGCAUGU
6,B6,0.0797 KA relative to UGCAUGU
7,B7,0.152 KA relative to UGCAUGU
8,B8,0.0779 KA relative to UGCAUGU
9,B9,0.175 KA relative to UGCAUGU
10,B10,0.112 KA relative to UGCAUGU
11,B11,0.0865 KA relative to UGCAUGU
12,B12,0.0972 KA relative to UGCAUGU
13,B13,0.092 KA relative to UGCAUGU
14,B14,0.103 KA relative to UGCAUGU
15,B15,0.117 KA relative to UGCAUGU
16,B16,0.0646 KA relative to UGCAUGU
17,B17,0.106 KA relative to UGCAUGU
18,B18,0.169 KA relative to UGCAUGU
19,B19,0.0705 KA relative to UGCAUGU
20,B20,0.11 KA relative to UGCAUGU
